# Article PMC4336329 (PLoS ONE, 2015)
# Among all 310,000 compounds or so, about 2,200 (0.71%) showed an effect of 50% or more. The effect is printed as a negative number. Some of the results follow.
# Target: human ether-à-go-go-related gene (hERG) potassium channel (human, UniProt Q12809)
# Test: primary screen, population patch clamp on CHO cells stably expressing hERG
# Chain of human ether-à-go-go-related gene (hERG) potassium channel (Q12809 whole entry, looked up): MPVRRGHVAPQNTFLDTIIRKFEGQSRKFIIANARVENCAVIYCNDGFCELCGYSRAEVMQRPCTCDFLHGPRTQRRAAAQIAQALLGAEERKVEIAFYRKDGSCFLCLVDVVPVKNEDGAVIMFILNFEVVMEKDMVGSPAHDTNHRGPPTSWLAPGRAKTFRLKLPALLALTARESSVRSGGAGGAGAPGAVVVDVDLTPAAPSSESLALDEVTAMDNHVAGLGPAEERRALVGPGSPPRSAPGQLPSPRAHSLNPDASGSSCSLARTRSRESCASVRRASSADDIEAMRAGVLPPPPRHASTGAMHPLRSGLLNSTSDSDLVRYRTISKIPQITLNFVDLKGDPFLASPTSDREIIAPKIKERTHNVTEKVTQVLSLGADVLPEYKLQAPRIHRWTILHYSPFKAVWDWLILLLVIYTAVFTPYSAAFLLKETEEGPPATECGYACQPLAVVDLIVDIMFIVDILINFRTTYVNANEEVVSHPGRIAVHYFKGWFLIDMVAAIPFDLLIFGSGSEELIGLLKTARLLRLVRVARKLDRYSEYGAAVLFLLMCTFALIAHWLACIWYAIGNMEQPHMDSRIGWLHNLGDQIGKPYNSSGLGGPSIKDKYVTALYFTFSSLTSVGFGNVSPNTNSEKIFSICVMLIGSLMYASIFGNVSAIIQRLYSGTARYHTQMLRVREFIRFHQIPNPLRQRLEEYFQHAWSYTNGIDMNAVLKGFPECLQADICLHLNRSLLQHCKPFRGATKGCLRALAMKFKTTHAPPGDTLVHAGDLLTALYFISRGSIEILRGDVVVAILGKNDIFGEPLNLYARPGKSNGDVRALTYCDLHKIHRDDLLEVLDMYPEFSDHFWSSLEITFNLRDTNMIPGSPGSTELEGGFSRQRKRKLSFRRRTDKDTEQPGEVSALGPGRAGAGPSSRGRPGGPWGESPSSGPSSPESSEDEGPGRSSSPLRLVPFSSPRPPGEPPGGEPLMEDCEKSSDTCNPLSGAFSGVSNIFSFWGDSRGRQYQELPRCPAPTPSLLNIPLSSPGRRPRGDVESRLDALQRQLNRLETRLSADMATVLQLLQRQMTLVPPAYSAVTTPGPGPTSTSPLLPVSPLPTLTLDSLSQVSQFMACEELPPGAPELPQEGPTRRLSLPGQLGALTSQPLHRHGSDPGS
row,SMILES,"hERG current change (%, negative = inhibition) at 1uM"
1,COc1nc(-c2ccccc2)cc(-c2ccc(OC)c(OC)c2)n1,-3.22%
2,CCC(CO)NCc1ccc(OC2CCCC2)cc1.Cl (stereo not drawn),-5.95%
3,O=C(NC1CCCCC1)C(c1ccccc1)N(Cc1cccnc1)C(=O)c1csnn1 (stereo not drawn),11.9%
4,CCOC(=O)c1c(-n2c(C)cc(C=O)c2C)sc2c1CCCC2,2.14%
5,COC(=O)c1cn(CC(=O)NC2CCCCC2)c2ccccc12,3.51%
6,O=C(Nc1cc(C(F)(F)F)ccc1N1CCOCC1)c1cnccn1,4.61%
7,Cc1cccc(N2C(=O)NC(=O)/C(=C/c3ccc(-c4ccc(C(=O)O)c(Cl)c4)o3)C2=O)c1,14.9%
8,N#Cc1ccc(S(=O)(=O)N2CCC(C(=O)N3CCN(Cc4ccc5c(c4)OCO5)CC3)CC2)cc1,-37.5%
9,COc1ccc(C(=O)Nn2c(SCC(=O)c3ccc(Cl)cc3)nc3ccccc3c2=O)cc1,6.84%
10,CC1(C)CN2C(=S)N(c3ccccc3)C(c3ccccc3)N2C1 (stereo not drawn),6.16%
11,COCCn1nnnc1C(c1ccccc1)N1CCN(Cc2ccc3c(c2)OCO3)CC1.Cl (stereo not drawn),3.09%
12,O=C(CCSc1ccccc1)Nc1nc2c(s1)CCCC2,4.98%
13,COc1ccc(CCN2CC(C(=O)N3CCSCC3)CCC2=O)cc1 (stereo not drawn),-1.17%
14,COC(=O)c1cc(S(=O)(=O)NCCN2CCOCC2)cn1C,8.56%
15,Cc1ccc(S(=O)(=O)NCC(C)n2nc(C)cc2C)cc1 (stereo not drawn),16.9%
16,CCN(CC)c1ccc(C(=S)N2CCN(c3ccccc3)CC2)cc1,4.26%
17,Cc1cccc(OC(=O)N2CCOCC2)c1,10.2%
18,COc1cccc(/C=N/Nc2nc(N3CCCC3)nc(N3CCCC3)n2)c1O,9.69%
19,O=C(CSc1nnc(-c2ccccc2)n1-c1ccc(Cl)cc1)NC1CCS(=O)(=O)C1 (stereo not drawn),10.8%
20,CCC(=O)N1CCc2cc(S(=O)(=O)NCCC(=O)NCc3ccccc3Cl)ccc21,6.65%
21,Cc1ccc(C(=O)NCC(=O)OCC(=O)Nc2ncc(C(F)(F)F)cc2Cl)cc1,8.47%
22,Cc1ccccc1S(=O)(=O)Cc1ccc(C(=O)N2CC(C)CC(C)C2)o1 (stereo not drawn),1.98%

row,SMILES,"hERG current change (%, negative = inhibition) at 1uM"
1,C[C@H](NC(=O)c1nc[nH]c1C(=O)N1CCc2ccccc2C1)C(=O)OCc1ccccc1,12.5%
2,O=C(Cc1cccc(C(F)(F)F)c1)NCc1cccnc1,8.35%
3,COc1cccc(CN(C)CC(O)COc2cc(Cl)ccc2Cl)c1.O=C(O)C(=O)O (stereo not drawn),6.33%
4,Cc1[nH]c(SCC(=O)Nc2cc(S(C)(=O)=O)ccc2Cl)nc1Cc1ccccc1,5.82%
5,C=CCNCCOCCOc1ccc(C)cc1[N+](=O)[O-],9.08%
6,Cc1ccc(SCC(=O)NN=C2CCN(C)CC2)cc1,13.8%
7,COc1ccc(C2(c3ccc(OC)cc3)NC(=O)N(CC(=O)Nc3ccc(C(N)=O)cc3)C2=O)cc1,11.8%
8,CCOC(=O)c1c(NC(=O)COC(=O)c2ccc(C)s2)sc2c1CC(C)(C)NC2(C)C,-9.63%
9,CC(=O)O/N=C(\N)c1ccc(-c2csnn2)cc1,5.94%
10,Cc1ccc(F)cc1NC(=O)N1CCCN(c2ccc(C(F)(F)F)cn2)CC1,-2.18%
11,CCOC(=O)C1CCN(C(=O)c2oc3ccc(S(=O)(=O)N4CCCCCC4)cc3c2C)CC1,4.05%
12,N/C(=N\OCC(=O)Nc1ccccc1)c1nonc1N,14.7%
13,Cc1cccc(NC(=O)CS(=O)(=O)c2c[nH]c3ccccc23)c1C,3.94%
14,C=CCN1C(=O)C(CC(=O)Nc2ccccc2)SC1=Nc1ccc(S(N)(=O)=O)cc1 (stereo not drawn),6.76%
15,CSc1nc2ccc(NC(=O)C3CC(=O)N(Cc4ccccc4)C3)cc2s1 (stereo not drawn),1.69%
16,Cc1cc(-c2ccccc2)[nH]c(=O)c1S(=O)(=O)c1ccc(Cl)cc1,14.9%
17,Cc1cc(N2CCN(c3ccccc3)CC2)n2ncnc2n1,-7.73%
18,Cc1ccccc1C(=O)N1CC(=O)Nc2ccc(F)cc2C1c1ccccc1 (stereo not drawn),6.24%
19,CN(C)C(CNC(=O)/C=C/c1cccc(Cl)c1)c1ccccc1 (stereo not drawn),2.79%
20,O=C(CSc1nc(=O)n2cc(Cl)ccc2n1)Nc1ccc2c(c1)OCO2,17.3%
21,O=C(COc1coc(CN2CCc3ccccc32)cc1=O)Nc1ccccc1,-3.5%
22,c1ccc(Cn2c(CN3CCCC3)nc3ccccc32)cc1,-32.9%

row,SMILES,"hERG current change (%, negative = inhibition) at 1uM"
1,COc1cc(/C=N/NC(=O)c2cc(-c3cccn3C)n[nH]2)cc(OC)c1OC,-8.84%
2,O=C(c1ccco1)N1CCN(c2ccc(Cl)c(Cl)c2)CC1,-0.211%
3,Cc1ccc2oc(-c3cccc(NC(=S)NC(=O)/C=C/c4ccco4)c3)nc2c1,5.35%
4,CC(C)Cn1c(N)c(C(=O)COC(=O)[C@H](C)NC(=O)c2ccccc2Cl)c(=O)n(C)c1=O,-8.18%
5,O=C(c1cccnc1Nc1ccccc1F)N1CCOCC1,13%
6,O=S(=O)(Nc1ncccn1)c1ccc(NC(=S)N2CCN(c3cccc(C(F)(F)F)c3)CC2)cc1,16%
7,O=C(NCCCn1ccnc1)c1cc(-c2ccccc2)on1,7.48%
8,CCCCN(C)C(=O)C1CCCN(S(=O)(=O)c2ccc3c(c2)oc(=O)n3C)C1 (stereo not drawn),6.37%
9,CCCSc1nnc(CSc2nc(C)cc(C)n2)n1C,-0.397%
10,COc1cc2c(cc1OC)C1(Nc3c-2c(Cc2ccccc2)nn3-c2ccccc2)C(=O)Nc2ccccc21 (stereo not drawn),12.4%
11,Cc1ccc(S(=O)(=O)N2CCOCC2)cc1NC(=O)CN1CCN(c2ccc(O)cc2)CC1,1.62%
12,Cc1cccc(/C=C2\CCC(=C3SCCCS3)C2=O)c1,3.23%
13,O=C(c1coc2ccc(O)cc12)C1CC1,3.86%
14,Cc1cc(NC(=O)C2C3C=CC(C3)C2C(=O)O)no1 (stereo not drawn),4.11%
15,COc1ccc(-c2csc(NC(=O)CC(C)C)n2)cc1,11.3%
16,CC(C)(C)C(=O)O/N=C1/C(=O)N(c2ccccc2)c2ccccc21,20%
17,Cc1ccccc1-n1cc(CNC(=O)C2CCC(=O)N(C3CC3)C2)cn1 (stereo not drawn),18.5%
18,O=C(NCc1ccc2c(c1)OCO2)C(=O)NCC1OCCN1S(=O)(=O)c1ccc(Br)cc1 (stereo not drawn),-5.06%
19,CC(NC(=O)/C(C#N)=C/c1ccc([N+](=O)[O-])o1)c1ccccc1 (stereo not drawn),13.7%
20,O=C1NCCc2c1[nH]c1ccc([N+](=O)[O-])cc21,-3.42%
21,Cc1ccc(S(=O)(=O)N2CCN(c3ccccn3)CC2)cc1,10.8%
22,COc1ccc(S(=O)(=O)NCC(=O)N(CC(=O)NCC2CCCO2)c2c(C)cccc2C)cc1 (stereo not drawn),2.6%

row,SMILES,"hERG current change (%, negative = inhibition) at 1uM"
1,O=[N+]([O-])c1ccc(Nc2ccc(F)cc2)cc1,11.4%
2,Nc1cccnc1-n1nc(C(F)(F)F)cc1C(F)(F)F,10.2%
3,CC(=O)OCc1nc2sc(C)c(C)c2c(=O)[nH]1,9.88%
4,CN(C)c1cccc(C(=O)NCCCSc2ccccc2)c1,9.45%
5,CC1Sc2ccc(S(=O)(=O)N3CCC(C(=O)NCc4ccccc4)CC3)cc2NC1=O (stereo not drawn),14.8%
6,CC(=O)NC(=O)c1nnn(Cc2ccccc2)c1NC(C)=O,-6.28%
7,CC(=O)OCCC(NS(=O)(=O)OCC(Cl)(Cl)Cl)c1ccccc1 (stereo not drawn),7.28%
8,Cc1cc2nc(Cl)c(Cl)nc2cc1C,5.62%
9,CNC(=S)N1CCc2ccccc2C1,2.88%
10,Cc1ccc(SCC2(O)CCN(S(=O)(=O)c3ccc(Cl)cc3)CC2)cc1,10.5%
11,COc1cccc(-c2nc(CS(=O)(=O)c3ccccc3)no2)c1,4.89%
12,CC(=O)N(c1ccc(N(C(C)=O)S(=O)(=O)c2cccs2)cc1)S(=O)(=O)c1cccs1,-3.17%
13,CCCc1c(C)nc(SCC(=O)C(C)(C)C)nc1OC(=O)N(C)C,4.84%
14,COc1cc(/C=C/C(=O)O)ccc1OS(=O)(=O)c1cc(Br)ccc1C,5.12%
15,C#CCOc1ccc(C2C(C#N)=C(N)Oc3cc(O)ccc32)cc1 (stereo not drawn),11.8%
16,COc1ccc(C2CC(c3ccccc3)=NN2C(=O)CSc2nccc(=O)[nH]2)cc1 (stereo not drawn),3.56%
17,Cc1cc(C(=O)Nc2ccc3c(c2)OCCO3)ccc1[N+](=O)[O-],14.5%
18,CC1(C(=O)NCCOc2ccccc2Cl)CC1(Cl)Cl (stereo not drawn),9.93%
19,COc1cc(NS(=O)(=O)c2ccc(N/C=C\C(=O)c3ccc(C)cc3)cc2)nc(OC)n1,4.13%
20,CCOCCn1c(=NC(=O)CSCC(=O)N2CCOCC2)sc2cc(OC)ccc21,2.13%
21,O=[N+]([O-])c1ccccc1S(=O)(=O)Oc1ccc(C(=S)N2CCOCC2)cc1,-15.3%
